# Out of some 220,000 compounds screened, about 2,300 (1%) were called active. Inconclusive results, whose numbers are uncertain, are shown with a selection of clear calls. Calls come from the whole dose curve; as a rule, active = well fitted inhibition curve with a large enough effect; inconclusive = small, poorly fitted or top-dose-only effect, or effect the other way; inactive = no such curve, though single readings can be large or run the other way. No potency is given beside an inconclusive call; the fits are too rough.
# Molecular target: Neuropeptide S receptor (Homo sapiens) (UniProt Q6W5P4)
# Assay: qHTS Assay for Antagonists of the Neuropeptide S Receptor: cAMP Signal Transduction; note: nearly all actives have a fitted effect of over 50% in size
# Settings: CHO-NPSR cells, cAMP TR-FRET, antagonist mode; series mostly up to 38.3 µM
# Potency is the fitted concentration of half-maximal effect; tags give direction and shape of the fitted curve.
# UniProt Q6W5P4, sequence (Q6W5P4 whole entry, looked up): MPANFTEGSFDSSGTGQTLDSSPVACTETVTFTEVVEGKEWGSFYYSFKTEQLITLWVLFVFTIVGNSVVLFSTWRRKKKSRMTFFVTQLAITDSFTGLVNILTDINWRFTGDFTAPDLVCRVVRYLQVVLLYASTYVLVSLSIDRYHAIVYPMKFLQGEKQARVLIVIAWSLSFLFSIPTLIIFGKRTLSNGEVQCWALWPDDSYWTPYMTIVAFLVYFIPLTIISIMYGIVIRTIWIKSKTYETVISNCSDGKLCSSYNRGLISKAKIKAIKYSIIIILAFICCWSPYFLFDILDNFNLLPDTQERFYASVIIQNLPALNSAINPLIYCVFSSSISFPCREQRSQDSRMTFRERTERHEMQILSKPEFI
row,Structure (SMILES),Potency
1,CCC(C)c1ccc(-c2cc(C(=O)OCC(=O)Nc3cc(C)on3)c3ccccc3n2)cc1 (configuration not stated),"inconclusive [inhibitor, partial curve]"
2,CCOC(=O)c1cc2c(C)n(-c3ccc(OCC)cc3)c(C)c2ccc1=O,"inconclusive [inhibitor, single point]"
3,COc1ccc(S(=O)(=O)N(C)c2ccc(C(=O)NCC3CCCO3)cc2)cc1 (configuration not stated),inactive
4,CCOc1cc(/C=C2/C(=N)N3OC(C)=CC3=NC2=O)ccc1OCCOc1ccccc1,active: 10 µM
5,CCOc1ccc(OCc2cccc(C(=O)N3CCCC3)c2)cc1,inactive
6,Cc1cccc(N2C(=O)C3C(c4ccccc4)OC4(C(=O)c5ccccc5C4=O)C3C2=O)c1 (configuration not stated),"inconclusive [inhibitor, partial curve, poor fit]"
7,Cc1ccc(N(CC(=O)NC2CC3CCC2C3)S(C)(=O)=O)cc1C (configuration not stated),"inconclusive [inhibitor, single point]"
8,COc1ccccc1Oc1nc(-c2cccnc2)nc2ccccc12,"inconclusive [inhibitor, single point]"
9,Cc1ccc(N2C(=O)C3ON(c4ccccc4)C(c4ccncc4)C3C2=O)c(C)c1 (configuration not stated),"inconclusive [inhibitor, single point]"
10,CCOC(=O)c1c(-c2ccc(C)o2)csc1NC(=O)CSc1nnc(C)s1,"inconclusive [inhibitor, single point]"
11,Nc1cccc(-c2cn3cccnc3n2)c1,inactive
12,COc1ccc(N2C(=O)[C@@H]3C(c4cccnc4)=NO[C@@H]3C2=O)cc1,inactive
13,COC(=O)c1c(NC(=O)c2ccc(C)o2)sc2c1CCCCC2,"inconclusive [inhibitor, partial curve, poor fit]"
14,COC(=O)c1ccc(Cn2cnc3c(sc4nc(N5CCOCC5)c5c(c43)CCCC5)c2=O)o1,"inconclusive [inhibitor, partial curve, poor fit]"
15,CC1CCCCC1NS(=O)(=O)c1ccc(S(=O)(=O)N2CCCC2)cc1 (configuration not stated),"inconclusive [inhibitor, single point]"
16,CC(C)(C)c1ccc(OCc2nc(-c3ccccn3)no2)c(Br)c1,"inconclusive [inhibitor, single point]"
17,O=C1CCCC2=C1C(c1ccc(Cl)cc1)C1C(=O)c3ccccc3C1=N2 (configuration not stated),"inconclusive [inhibitor, partial curve]"
18,CCC/C(O)=C1\C(=O)CCCC1=NCCc1c(C)[nH]c2ccc(OC)cc12,inactive
19,CC[N+](C)(CC)CC(=O)OCC1C(C)C=C(C)CC1C (configuration not stated),inactive
20,Cc1cc(C)n(-c2ccc(C(=O)OCC(=O)c3ccc(Br)s3)cc2)n1,"inconclusive [activator, single point]"
21,COc1ccc(C2/C=C\CN(C(=O)NC34CC5CC(CC(C5)C3)C4)CC(=O)N2Cc2ccc(F)cc2)cc1 (configuration not stated),"inconclusive [inhibitor, single point]"

row,Structure (SMILES),Potency
1,CCn1c(SCC(=O)Nc2nc3ccccc3s2)nc2c(c1=O)SC(C)C2 (configuration not stated),"inconclusive [inhibitor, partial curve]"
2,CCOC(=O)c1sc(=S)n(-c2ccc(F)c(F)c2)c1N,"inconclusive [inhibitor, single point]"
3,O=C(Nc1nnc(C2CC2)s1)c1cc(S(=O)(=O)N2CCN(c3ccccc3)CC2)ccc1Cl,"inconclusive [inhibitor, single point]"
4,COCCCn1c(=O)/c(=C\c2ccccc2OC(C)C)s/c1=C(/C#N)C(=O)Nc1ccc(C(=O)O)cc1,"inconclusive [activator, full curve]"
5,O=C(CSc1nnc(COc2cccc3cccnc23)o1)N1CCc2ccccc21,"inconclusive [inhibitor, partial curve]"
6,Cc1cc2c(cc(C(=O)NCc3cccnc3)n2Cc2ccc(Cl)cc2)o1,"inconclusive [inhibitor, single point]"
7,COc1ccc2c(-c3ccccc3)cc(SCC(=O)N(C)C)nc2c1,"inconclusive [inhibitor, single point]"
8,N/C(COc1ccc(Cl)cc1Cl)=N\NS(=O)(=O)c1ccccc1,"inconclusive [inhibitor, partial curve]"
9,c1ccc(N2CCN(c3ccccc3)C2c2ccncc2)cc1,"inconclusive [inhibitor, single point]"
10,FC(F)(F)c1nc(=S)c2ccccc2[nH]1,"inconclusive [inhibitor, single point]"
11,O=c1c2ccccc2nc(-c2ccoc2)n1CCc1ccccc1,inactive
12,CCOC(=O)C1=C(C)NC2=C(C(=O)CCC2)C1c1cn(Cc2ccc(Cl)cc2Cl)nc1-c1ccccc1 (configuration not stated),"inconclusive [inhibitor, partial curve]"
13,COc1ccc([N+](=O)[O-])cc1COc1cc(C)cc2oc(=O)cc(-c3ccccc3)c12,"inconclusive [inhibitor, partial curve]"
14,Cc1cc(C)cc(-n2c(C)cc(/C=N/NC(=O)CSc3ncccn3)c2C)c1,"inconclusive [inhibitor, full curve]"
15,COc1ccc(C(=S)N2CCN(C)CC2)cc1Br,inactive
16,COC(=O)Cn1c(=NC(=O)c2ccc(OC)cc2)sc2cc(OC)ccc21,inactive
17,Cc1ccc(-c2n[nH]c(=S)n2/N=C/c2ccc(C)s2)cc1,"inconclusive [inhibitor, single point]"
18,Cc1ccc(NC(=O)c2cc3c(=O)oc4ccc(C)cc4c3s2)nc1,"inconclusive [activator, partial curve]"
19,CC(C)NCC(O)Cn1c2c(c3ccccc31)CCc1c-2cnn1-c1ccccc1 (configuration not stated),"inconclusive [inhibitor, single point]"
20,O=C(CSc1ncn[nH]1)Nc1nc(-c2ccccc2)cs1,"inconclusive [inhibitor, single point]"
21,O=c1c(Cl)c(Cl)cnn1Cc1ccc(F)cc1,"inconclusive [activator, single point]"

# From PubChem BioAssay AID1461 (National Center for Advancing Translational Sciences (NCATS), 2008)
